Laboratory results as given in PubChem BioAssay AID488969 (Vanderbilt High Throughput Screening Facility, 2010).
The full ranking holds about 110,000 compounds; the median of “z-score” is about -0.1, and the highest 2% start at about 2. Some of the results follow. Calls of active or inactive are those of the source.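 The calls were made as follows: active = z-score in the third read window above 3 or below -3; inactive = the rest.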

The compounds below were run against Metabotropic glutamate receptor 8 (Rattus norvegicus) (UniProt P70579) (assay: mGluR8 Gi/Go-coupled signaling modulation – cell-based, rat, thallium flux, HTS, primary screen (AID 488969)). Settings: HEK293 rat mGluR8, GIRK (G protein-gated inwardly rectifying potassium channel) thallium flux, FluoZin2; at 10 µM; stronger effect = higher value; submaximal glutamate (EC20) added with thallium.
Sequence of UniProt P70579 (P70579 whole entry, looked up): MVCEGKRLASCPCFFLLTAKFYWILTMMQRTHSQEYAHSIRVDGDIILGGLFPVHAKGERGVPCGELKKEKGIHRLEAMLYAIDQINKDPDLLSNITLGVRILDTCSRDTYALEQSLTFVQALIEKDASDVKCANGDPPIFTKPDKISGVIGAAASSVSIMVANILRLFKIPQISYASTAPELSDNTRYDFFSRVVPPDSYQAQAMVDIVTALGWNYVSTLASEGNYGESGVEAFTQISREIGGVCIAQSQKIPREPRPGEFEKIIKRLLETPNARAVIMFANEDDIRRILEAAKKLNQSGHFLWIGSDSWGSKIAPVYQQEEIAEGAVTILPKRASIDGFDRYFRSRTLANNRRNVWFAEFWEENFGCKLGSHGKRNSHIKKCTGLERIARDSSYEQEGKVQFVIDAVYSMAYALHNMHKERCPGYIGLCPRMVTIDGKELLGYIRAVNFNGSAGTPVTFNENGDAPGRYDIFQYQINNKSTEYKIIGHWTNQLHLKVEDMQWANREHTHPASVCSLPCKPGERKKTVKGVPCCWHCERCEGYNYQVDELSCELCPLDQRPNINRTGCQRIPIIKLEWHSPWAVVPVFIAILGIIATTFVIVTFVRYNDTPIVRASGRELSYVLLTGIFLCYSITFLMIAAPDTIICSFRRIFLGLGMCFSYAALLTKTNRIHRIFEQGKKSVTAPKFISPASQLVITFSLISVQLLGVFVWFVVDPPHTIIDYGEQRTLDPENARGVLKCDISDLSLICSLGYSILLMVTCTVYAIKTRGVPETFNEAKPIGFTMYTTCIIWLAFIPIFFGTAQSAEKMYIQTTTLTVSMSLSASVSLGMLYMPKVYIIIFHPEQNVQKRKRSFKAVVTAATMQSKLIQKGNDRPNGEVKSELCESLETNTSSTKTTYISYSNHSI

| Compound | z-score |
| --- | --- |
| CC(=O)c1sc(NC(=O)c2cccc3ccccc23)nc1C | 0.284 |
| CC(=O)Nc1ccc(Oc2sc(C(=O)c3ccccc3)c(N)c2C#N)cc1 | -0.122 |
| COC(=O)c1cn(CCOc2ccc(C)cc2)c2ccccc12 | -0.0474 |
| O=C(Nc1ccc(N2CCN(C(=O)c3ccco3)CC2)cc1)C(c1ccccc1)c1ccccc1 | -0.317 |
| O=C(NCc1ccco1)c1noc2c1CCCCC2 | 0.248 |
| COCCNc1nc2c(c(=O)n(Cc3ccc(OC)cc3)c(=O)n2C)n1C | -0.299 |
| O=C(COc1ccc(Cl)cc1)NC1CCSC1=O (stereo not given) | -0.441 |
| CC(=O)Nc1ccc2c(c1)nc(CCN1CCOCC1)n2C | -0.145 |
| COc1ccc(/C=N/NC(=O)c2ccc(C)cc2)cc1CN1CCN(c2ccc(F)cc2)CC1 | -0.0403 |
| CCOC(=O)c1c(C)[nH]c(C(=O)C(C)OC(=O)c2cccc(OCc3c(C)noc3C)c2)c1C (stereo not given) | -0.76 |
| CCOC(=O)c1nn(-c2ccccc2)c(=O)cc1SC(C)C | -0.0576 |
| O=S(=O)(c1ccc(Br)s1)N1CCC(Cc2ccccc2)CC1 | -0.136 |
| FC(F)(F)c1nnc2ccc(NCn3nnc4ccccc43)nn12 | -0.786 |
| CC(=O)c1cccc(NS(=O)(=O)N(C)C)c1 | -0.0274 |
| O=C(c1ccc(Cl)cc1)c1cn[nH]c1-c1ccccc1O | -0.376 |
| Cc1ccccc1CS(=O)(=O)Cc1ccc(C(=O)NCc2ccccn2)o1 | 0.493 |
| CC(Sc1nc(N2CCCCC2)c2c(c1C#N)CCCC2)C(=O)O (stereo not given) | -2.24 |
| Cc1cc(C)nc(NC(=NCc2ccc3c(c2)OCO3)NC(=O)Nc2ccccc2)n1 | 0.0743 |
| CCN(CCO)C(=O)CC(c1ccccc1)c1cc(Br)ccc1O (stereo not given) | -0.323 |
| C=CCOCCN1C(=O)C2C(c3ccccc3)C=CC(c3ccccc3)C2C1=O (stereo not given) | 0.0984 |
| C=CCSC1=C(C#N)C(c2ccccc2Cl)C(C(=O)c2cccs2)C(O)(C(F)(F)F)N1 (stereo not given) | -0.278 |
| CCCOC(=O)c1ccc(NC(=O)C2C3CCC(C3)C2C(=O)O)cc1 (stereo not given) | 0.0507 |

| Compound | z-score |
| --- | --- |
| Cc1ccc(-n2cnnn2)c2cccnc12 | -0.0905 |
| Nc1ncnc2c1C1(CCCCC1)Cc1ccccc1-2 | -0.678 |
| CCOCCn1c(C(C)O)nc2ccccc21 (stereo not given) | -0.208 |
| O=C(C1CCCN(S(=O)(=O)c2cccc3cccnc23)C1)N1CCN(c2ccc(F)cc2)CC1 (stereo not given) | -0.522 |
| Cc1c(Nc2cc(N3CCCCCC3)c3nonc3c2[N+](=O)[O-])c(=O)n(-c2ccccc2)n1C | -0.277 |
| CCCCC[n+]1ccn(-c2nc3ccccc3nc2[N-]S(=O)(=O)c2ccc(C)cc2)c1 | -0.249 |
| CC(NS(=O)(=O)c1ccc(Br)cc1)C(N)=O (stereo not given) | 0.444 |
| O=C(O)c1cc2c(o1)CCC/C2=N\O | -0.346 |
| Cc1ccc2nc(-c3ccc(N4C(=O)CC(N5CCC(C(N)=O)CC5)C4=O)cc3)sc2c1 (stereo not given) | -0.388 |
| O=C(Nc1cccc(Cl)c1)Nc1ccc(Br)cc1F | -0.0559 |
| O=C(Nc1cccc2ccccc12)c1nn(C23CC4CC(CC(C4)C2)C3)cc1[N+](=O)[O-] | -0.0877 |
| CC1CCC(C(C)C)C(OC(=O)CSc2nc(N)cc(=O)[nH]2)C1 (stereo not given) | -0.124 |
| CCc1cccc(Oc2nn[nH]n2)c1 | -0.415 |
| COc1cccc(NC(=O)Nc2nnc(-c3ccccc3SCc3ccccc3)s2)c1 | -0.00429 |
| NC(Cc1ccc2nsnc2c1)C(=O)O (stereo not given) | 0.179 |
| O=C(/C=C/c1ccc(Cl)cc1Cl)NCCN1CCOCC1 | -0.554 |
| COC(=O)C1CCN(C(=O)COC(=O)CC(NC(C)=O)c2ccccc2)CC1 (stereo not given) | -0.208 |
| CCc1ccc(NC(=O)C(=O)N/N=C(\C)CC(=O)Nc2ccccn2)cc1 | 0.701 |
| O=C(NCc1nc2ccccc2[nH]1)c1ccc(S(=O)(=O)N2CCOCC2)cc1 | -1.27 |
| CCOC(=O)C(Nc1ccc2ccccc2c1)C(=O)OCC | -0.724 |
| COc1cccc(-n2c(Cc3cc(=O)[nH]c(=O)[nH]3)nnc2SCC(=O)N2CCCCCC2)c1 | -0.039 |
| COc1ccc(CCNC(=O)Cc2nn(C)c(=O)c3ccccc23)cc1OC | -0.658 |

| Compound | z-score |
| --- | --- |
| O=C(O)c1ccccc1S(=O)CCO (stereo not given) | -0.409 |
| CN1CCN(c2ccccc2NC(=O)c2ccc(-c3ccccc3)cc2)CC1 | -0.0195 |
| O=C1OC2(c3ccccc3)C3CCCC2C13 | -0.695 |
| CCOc1cccc(C(=O)NC2CCCCC2)c1 | -0.294 |
| COc1ccc(-n2c(COc3ccc(C)cc3)nnc2SCC(N)=O)cc1 | -1.14 |
| COc1cccc(N2C(=O)C3ON(c4ccccc4)C(c4cccs4)C3C2=O)c1 (stereo not given) | -0.134 |
| CS(=O)(=O)Nc1ccccc1C(=O)Nc1cc(Cl)cc(Cl)c1 | -0.153 |
| COc1ccc(C(=O)n2nc(C)cc2C)cc1Br | -0.222 |
| O=C(NC1CCCC1)C(c1ccncc1)N(CC1CCCO1)C(=O)Cn1nnc(-c2cccs2)n1 (stereo not given) | 0.084 |
| CC(C)N(C(=O)COc1ccc(Br)cc1Cl)C(C)C | -0.925 |
| O=C(CSc1nc2ccccc2s1)N1CCN(C(=O)c2ccco2)CC1 | 0.167 |
| CN(C)CCn1c(C(=O)Nc2ccccc2)cc2ccccc21 | -0.549 |
| COc1cccc(N2CC(C(=O)Nc3nnc(SCc4ccccn4)s3)CC2=O)c1 (stereo not given) | -0.6 |
| OC(CNCC(c1ccco1)N1CCCCC1)c1ccccc1 (stereo not given) | 0.549 |
| COc1ccc(-n2nc([N+](=O)[O-])c(=NCc3ccc4c(c3)OCO4)n2O)cc1 | -0.12 |
| O=c1cc(CSc2ccc(Cl)cc2)nc(N2CCOCC2)[nH]1 | -0.725 |
| Cc1[nH]nc2c1C1(CCC(c3ccccc3)CC1)C(C#N)=C(N)O2 (stereo not given) | -0.0577 |
| O=C(c1cccs1)c1no[n+]([O-])c1C(=O)c1cccs1 | -0.851 |
| Cc1occc1-c1nnc(SCC(=O)c2ccc(Cl)cc2)n1CC1CCCO1 (stereo not given) | -0.0382 |
| Cc1ccc(C)c(N(CC(=O)NC2CCCC2)C(=O)c2cc3cc4cc(C)ccc4nc3s2)c1 | 0.332 |
| CCN(CC)c1ncnc2c1sc1nc(N3CCOCC3)c3c(c12)CCC3 | -0.163 |
| CCOC(=O)c1[nH]c(C)c(C(=O)O)c1C | -0.0615 |

| Compound | z-score |
| --- | --- |
| CCOC(=O)c1ccc(NC(=S)N2CCN(Cc3ccccc3)CC2)cc1 | -0.2 |
| COc1cc(NCCCCCCCN)c2ncccc2c1 | 2.78 |
| Cc1ccc(O)c(N=NC2=C(O)CC(C)(C)CC2=O)c1 | 0.0252 |
| O=C(O)C1CC(c2ccc(F)cc2)=NO1 (stereo not given) | -0.205 |
| CCCCc1cc(=O)oc2cc(OCc3cc(OC)c(OC)c(OC)c3)c(Cl)cc12 | -0.0451 |
| CC(=O)c1c(N)c(C#N)c(C)n1-c1ccc(Br)cc1 | -0.725 |
| CCN1C(=O)CC(N2CCN(CC(=O)NC(C)C)CC2)C1=O (stereo not given) | -0.0646 |
| C=CCn1c(CCNC(=O)c2ccccc2F)nnc1SCC(=O)Nc1nc2ccccc2s1 | -0.292 |
| CC(=O)NN1C(=O)c2ccc(Oc3cccc([N+](=O)[O-])c3)cc2C1=O | 0.204 |
| COCCOC(=O)/C(=C/c1ccc(OC(=O)c2ccccc2)cc1)C(C)=O | 0.763 |
| O=C(CCSCCc1ccccn1)Nc1cc(F)ccc1F | 0.83 |
| COc1cccc2cc(C(=O)N3CCN(C/C=C/c4ccccc4)CC3)c(=O)oc12 | -0.766 |
| COc1cc([N+](=O)[O-])ccc1NC(=O)CCCOc1cc(C)ccc1C | -0.277 |
| Cc1cc2cc(CCNC(=O)C(C)C)c(=O)[nH]c2cc1C | -0.313 |
| Cc1nn(-c2ccccc2)c(=S)c2ccccc12 | 0.00587 |
| CCCOC(=O)/C(=C\c1ccc([N+](=O)[O-])o1)NC(=O)c1ccccc1 | -0.939 |
| CCCCOc1ccc(S(=O)(=O)Nc2cc(OC)ccc2OC)cc1 | -1.31 |
| Cc1ccc(C)c(N2CCN(C(=O)C3CCCCN3S(=O)(=O)c3ccc(F)cc3)CC2)c1 (stereo not given) | -0.219 |
| COc1cc(CNc2nc3ccccc3n2C)cc(OC)c1OC | -0.245 |
| COc1ccc(C2(O)CCN(Cc3nnnn3Cc3ccc(F)cc3)CC2)cc1 | -0.521 |
| COc1ccc(C2CC(c3ccccc3OC(C)=O)=NN2C(=O)/C=C/c2ccccc2)cc1OC (stereo not given) | -0.253 |
| O=C(CN1C(=O)C2C3c4ccccc4C(c4ccccc43)C2C1=O)N1CCOCC1 (stereo not given) | -0.00306 |

| Compound | z-score |
| --- | --- |
| O=C(NCCC(c1ccccc1)c1ccccc1)c1ccc(Br)o1 | 1.8 |
| CCOc1ccc(C(=O)Cc2cc(OC)c(OC)cc2[N+](=O)[O-])cc1 | -0.0207 |
| Cc1nc(C)c(CCNC(=O)c2ccccc2)s1 | 0.81 |
| CC1=CCC(C(=O)O)C(C(=O)Nc2nc3ccc(S(C)(=O)=O)cc3s2)C1 (stereo not given) | 0.387 |
| COc1ccc(N2CCN(CCCNS(=O)(=O)c3ccc4c(c3)oc(=O)n4C)CC2)cc1 | -0.0748 |
| NC(=O)C[C@@H]1N[C@]2(C(=O)Nc3ccccc32)[C@@H]2C(=O)N(c3cc(C(F)(F)F)ccc3Cl)C(=O)[C@H]12 | -0.363 |
| N#Cc1cc2c(nc1SCC1COc3ccccc3O1)CCC2 (stereo not given) | 0.113 |
| CCn1c(-c2csc3ccccc23)n[nH]c1=S | -0.273 |
| CCNC(=S)Nc1ccccc1-c1ccccc1 | 0.237 |
| Cc1ccc(NC(=O)CN(c2ccccc2)S(=O)(=O)N(C)C)cc1C | -0.104 |
| CCSc1nnc(NC(=O)c2cccnc2Cl)s1 | -0.234 |
| Cc1cccc(Nc2nnc(SCC(=O)Nc3ncc(C(F)(F)F)cc3Cl)s2)c1C | -0.195 |
| CC1=C(C(=O)OC(C)C)C(c2ccc(C)o2)NC(=O)N1 (stereo not given) | -0.0986 |
| COc1cccc(C(=O)NNC(=O)Cc2ccc(Cl)cc2)c1 | -0.153 |
| CCOC(=O)C=Nc1c(N)n(C)c(=O)n(C)c1=O | 2.44 |
| COc1ccc(/C=N/Nc2ccc(C(F)(F)F)cc2[N+](=O)[O-])cc1O | -0.17 |
| O=C(c1ccc(Cl)nc1)N1CCc2ccccc2C1 | -0.281 |
| Cc1ccsc1/C=N/NC(=O)c1sccc1C | active: 5.91 |
| COC(=O)c1nn(-c2ccccc2)nc1-c1nn(-c2ccccc2)nc1C(=O)OC | -0.273 |
| COc1ccc(NC(=O)C(C)Oc2ccc(/C(C)=N\O)cc2)cc1 (stereo not given) | 0.997 |
| O=C(c1ccccc1)N(NC(=O)C(O)(c1ccccc1)c1ccccc1)c1cccc(F)c1 | -0.335 |
| Cc1cccc(N2CCN(C(=O)Cn3cccc3C(=O)c3ccccc3)CC2)c1C | -0.349 |
